From paper PMC9911399, “Two distinct binding modes provide the RNA-binding protein RbFox with extraordinary sequence specificity”
Residue numbers refer to the chain shown, from its start. The list shows a part of the results.

B1: UAUCGGU (DNA:RNA)
RNA: GGGAGACCGGAAUUCAGAUUGUCCUAUCGGUUUAAAUCCCGUCGUAGCCACCA
DNA 1: CAATCTGAATTCCGGTCTCCC
DNA 2: TGGTGGCTACGACGGGATT
B2: UCCGAUC (DNA:RNA)
RNA: B1 RNA with A26C, U27C, C28G, G29A, G30U, U31C
DNA 1: CAATCTGAATTCCGGTCTCCC
DNA 2: TGGTGGCTACGACGGGATT
B3: AGGAGUU (DNA:RNA)
RNA: B1 RNA with U25A, A26G, U27G, C28A, G30U
DNA 1: CAATCTGAATTCCGGTCTCCC
DNA 2: TGGTGGCTACGACGGGATT
B4: UUAGUGU (DNA:RNA)
RNA: B1 RNA with A26U, U27A, C28G, G29U
DNA 1: CAATCTGAATTCCGGTCTCCC
DNA 2: TGGTGGCTACGACGGGATT
B5: CGCUGUC (DNA:RNA)
RNA: B1 RNA with U25C, A26G, U27C, C28U, G30U, U31C
DNA 1: CAATCTGAATTCCGGTCTCCC
DNA 2: TGGTGGCTACGACGGGATT
B6: CGGUAAA (DNA:RNA)
RNA: GGGAGACCGGAAUUCAGAUUGUCCCGGUAAAUUAAAUCCCGUCGUAGCCACCA
DNA 1: CAATCTGAATTCCGGTCTCCC
DNA 2: TGGTGGCTACGACGGGATT
B7: UGACGCG (DNA:RNA)
RNA: B1 RNA with A26G, U27A, G30C, U31G
DNA 1: CAATCTGAATTCCGGTCTCCC
DNA 2: TGGTGGCTACGACGGGATT
B8: GCCGCCU (DNA:RNA)
RNA: B1 RNA with U25G, A26C, U27C, C28G, G29C, G30C
DNA 1: CAATCTGAATTCCGGTCTCCC
DNA 2: TGGTGGCTACGACGGGATT
B9: CUAAUCG (DNA:RNA)
RNA: B6 RNA with G26U, G27A, U28A, A29U, A30C, A31G
DNA 1: CAATCTGAATTCCGGTCTCCC
DNA 2: TGGTGGCTACGACGGGATT

Target: T1, RBFOX1 RRM RbFoxmut (Fox-RRM*) (Homo sapiens, UniProt Q9NWB1 109-208, R118D;E147R;N151S;E152T)
T1 sequence: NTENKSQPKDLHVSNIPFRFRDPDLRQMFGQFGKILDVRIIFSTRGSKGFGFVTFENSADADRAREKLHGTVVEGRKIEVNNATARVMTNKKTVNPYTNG
Experiment: EMSA; HiTS-Eq, 1 nM pool, 10 min; buffer printed only for the single-RNA assays: 10 mM Tris pH 7.5, 150 mM NaCl, 3.4 mM EDTA, 0.001% NP-40, 30 C
Conditions: tags: His6 N-terminal (pET28a); label: 5' 32P
In short: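 Purified RbFox RRM, wild type or mutant, was incubated for 10 min in 50 µL with 1 nM of a 5′-radiolabelled RNA pool carrying 7 randomized nucleotides, whose flanks were annealed to DNA oligonucleotides, over a series of increasing protein concentrations. Unbound RNA was resolved on 8% native PAGE, cut out, reverse-transcribed, barcoded by PCR and sequenced on an Illumina HiSeq 2500. Relative association constants were derived from changes in read counts for each RNA species versus the control reaction and normalised to the cognate motif.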

Binder | binding signal
B1 | 0.12 KA relative to UGCAUGU
B2 | 0.0412 KA relative to UGCAUGU
B3 | 0.122 KA relative to UGCAUGU
B4 | 0.166 KA relative to UGCAUGU
B5 | 0.263 KA relative to UGCAUGU
B6 | 0.0781 KA relative to UGCAUGU
B7 | 0.131 KA relative to UGCAUGU
B8 | 0.076 KA relative to UGCAUGU
B9 | 0.0487 KA relative to UGCAUGU
